Experimental data reported in the RNAGym collection of RNA variant scans (doi:10.7554/elife.90254).
Read counts are not given, so values of variants with three or more changes are uncertain.

B1: LINE1-mini (parent)
chain: GGCAGAGCUCAACACAGCGUGGCAAAGUGGCUGUGGCUAGACUGCC

Variants of: B1
Assay: self-cleavage, relative activity (ratio to wild type); higher = more cleavage; in vitro, sequencing; the parent is a self-cleaving ribozyme

Row | Variant | self-cleavage
1 | GGCAAACCUCAACACAGCCUGGCAAAGUGGCUGUGGCUUGACUGCC | 0.04
2 | GGCAAAUCUCAACACAGCGUGGCAAAGUGGCUGUGGCUAGACUUCC | 0.61
3 | GGCAAAGCUCAACACAGCGUGGCAAAGUGGCUCUGGCCAGACUGCC | 0.05
4 | GGCAAAGCUCAACACAGCGUGUCAAAGGAGCUGUGGCUAGACUGCC | 0.26
5 | GGCAAAGCUCAACACAGCGUGUCAAAGUAGCUGUGCCUAGACUGCC | 0.04
6 | GGCAAAGCUCAACACAGCCUGGCACAGUGGCUGUGGCUAGACUCCC | 0.05
7 | GGCAAAGCUCAACACAGCGUGGCAAAGUGGCUAUGGCUAACCGGCC | 0.08
8 | GGCAAACCUCAACACACCGUGGCAAAGUGUCUGUGGCUACACUACC | 0.02
9 | GGCAAAGCUCAACACAGCGUUGCCAAGUGGCUGUGGCUAGACUGCU | 0.09
10 | GGCAAAGCUCAACACAGCGUGGCAAAUUGGGUGUGGGUAGACUGCC | 0.02
11 | GGCAAAGCUCAACACAGCGUGGCAAAGUCGCUGUGGCUAGACUCCC | 0.03
12 | GGCAAAGCUCAACACAGCGUGGCAAAGUGACUGUGGCCAGACUGCC | 0.15
13 | GGCAAAGCUCAACACAGCUUGGCAAAGUGGCUGUGGUUAGACUGCC | 0.03
14 | GGCAAAUCUCAACACAGCGUGGCAAAGUGGCUGUGGCAAGAUUGCC | 0.01
15 | GGCAAAGCUCAACACAGCGUUGCAAAUUGGCUGUGGCUAGACAGCC | 0.03
16 | GGCAAAGCACUAUACAGCGUGGCAAGGUGGCUGUGCCUAGACUGCC | 0.03
17 | GGCAAAGCUCAACACAGCGUGGCAAACUGGCUGUGGCUAGACUUCC | 0.43
18 | GGCAAACCUCAACACAGCGUGGCAAAGUCACUGUGGCUAGACUGCA | 0.1
19 | GGCAAAGCCCAACACAGCGAGGCGAAGUGGCUGUGGCUAGACAGCC | 0.01

Row | Variant | self-cleavage
20 | GGCAAAGCUCAACACAGCGUGGCAAAGUUGCUGUGGAUAGACUGAC | 0.03
21 | GGCAAAGCACAACACAGCGUGGCAAAGUGGCUGUGACUAGACUGCC | 0.13
22 | GGCAAAGCUCAACACAGCGUGGCAAAGUGUCCGUGGCUAGACUGCC | 0.03
23 | GGCAAAGCUCAACACAGCGUGCCUAAGUGGCUGUGGCUCAACUGCC | 0.02
24 | GGCAAAUCUAAACACUGCGUGAGAAAGUGGCUGUGGCUAGACUGCC | 0.02
25 | GGCAAAGCUCAACACAGCGUUGCAAAGUGUAUGUGGCUAGACUGCC | 0.03
26 | GGCAAAGCUCAACACAGCGUGUCAAAGUGGCUGCGGCUAGGCUGCC | 0.02
27 | GGCAAAGCUCAACACAGCUUGGCAAAGUGGCUGUGGCUAGACUCCC | 0.04
28 | GGCAAAGCAGAACACAGCGUGCCAAAGUGGCUGUGGUUAGACUGCC | 0.03
29 | GGCAAACCUCAAGACAGCGUCGCAAAGUGUCGGUGGCUAGACUGCC | 0.1
30 | GGCAAAUCUCAACACAGCGUGGUAAAGUGGCUGUGGCUAGACUGCC | 0.1
31 | GGCAAAGCACAACACAGCGUGGCAAAGUGGCUGUGGUUAGUCUGGC | 0.07
32 | GGCAAAGCUCAACACAGCGUGGCAAAGUGGCUUUGGCUACACUGCC | 0.02
33 | GGCAAAUCUCAACACAGCGUGGCAUAGUGACUGUGGCUAGACUGCC | 0.76
34 | GGCAAAGCUCAACACAACGUGGCAAAGUGGCUGUGGCUAGACUUCC | 0.02
35 | GGCAAAUCUCAACACGGCGUGGCAACGUGGCUGUGGCUAAACUGCU | 0.06
36 | GGCAAAUCUCAACACAGCGUGGCAAAGUGGCUGGGGAUAGACUGCC | 0.08
37 | GGCAAACCUCAACACAGCGUGGCAAAGUGGCUGUGGCUAGACUGCU | 0.05
38 | GGCAAAGCUCAACACAGCGUGGCAAAUUGGCUGUGGAUAGACAUCC | 0.17

Row | Variant | self-cleavage
39 | GGCAAAGCUCAACACAGCGUGGCAAAGUGACUGUGUCUAGAGUGCC | 0
40 | GGCAAACCUCAACACAGCGUGGCAAAGUGGCUGUGGCUAGACCGCC | 0.07
41 | GGCAAAGCUCAACACAGCGUGGCAAAAUGGCUGUGGCUGGACUGCC | 0.03
42 | GGCAAAGCUCAACACAUCGUGGCAAAGUGGAUGUGGCUAGACUGCC | 0.08
43 | GGCAAAGCUCAACACAGCGUGCCAAAGUGGCUGUAGCUAGACUGCC | 0.07
44 | GGCAAACCUCAACACACCGUGUCAAAGUGGCUUUGGCUAGACUGCC | 0.13
45 | GGCAAAGCUCAACACAGCGUGGCAAACUGGCUGCGGCUAAACUGCC | 0.17
46 | GGCAAAGCUCAACACAGCGUAGCAAAGUGGCUGUGGCUAGACCGCC | 0.1
47 | GGCAAACCUCAACACAGAGUGGCAAAGUGGCUGUGGCUAGACUGCC | 0.18
48 | GGCAAAGCUCAACACAGCUUGGCCAAGUGGCUGUGGGUAGACUGCC | 0.02
49 | GGCAAAGCUCAACACAUAGUGGCAAAAUGGUUGUGGCUAGACUGCC | 0.03
50 | GGCAAAUCUCAACACAGCGUGCCAGAGUGGCUGUGGCUAGACUGUC | 0.03
51 | GGCAAACCUCAACACAGCGUGGCAAACUGGCUGUAGCUAGACUGCC | 0.06
52 | GGCAAAGCUCAACACAGCGUGGCAAAGUGGCUAUGGCAUGACUGCC | 0.05
53 | GGCAAAGCUCAACACAGCGUUGCAAAGUGGCUGUGGCUAGUCUGCC | 0.14
54 | GGCAAAGCUCAACACAGCGUGGCAAAGUAGCUGUGUCUAGACUGCC | 0.06
55 | GGCAAACCCCAACACAGCGUCGCAAAGUGGCUGUGGCUAGGCUGCC | 0.04
56 | GGCAAAGCUCAACACAGCGUGGCAAAGUGGCUGUGGCUACACUGUC | 0.15
